Results reported in PMC3617184.
These are yes or no findings as the source states them, for the method shown. Binding seen in cells or lysates may run through a third protein. Some results given as binding are weak or reduced against the parent protein; the word gives no strength. Where a sequence is shown, tags or fusion partners need not be part of it.

Legend:
Mbp1 (S. cerevisiae) = target: T1, Mbp1 (S. cerevisiae) (UniProt P39678); assay: co-IP; lysate of an asynchronous Nrm1-myc culture; IP with anti-Mbp1, anti-Swi4 or anti-Swi6 polyclonal sera, protein A Sepharose, 2 hours at 4°C; lysis buffer 50 mM Tris-HCl pH 7.5, 1% Triton X-100, 250 mM NaCl; blots with anti-myc, anti-Mbp1, anti-Swi6, anti-Swi4
T1 sequence: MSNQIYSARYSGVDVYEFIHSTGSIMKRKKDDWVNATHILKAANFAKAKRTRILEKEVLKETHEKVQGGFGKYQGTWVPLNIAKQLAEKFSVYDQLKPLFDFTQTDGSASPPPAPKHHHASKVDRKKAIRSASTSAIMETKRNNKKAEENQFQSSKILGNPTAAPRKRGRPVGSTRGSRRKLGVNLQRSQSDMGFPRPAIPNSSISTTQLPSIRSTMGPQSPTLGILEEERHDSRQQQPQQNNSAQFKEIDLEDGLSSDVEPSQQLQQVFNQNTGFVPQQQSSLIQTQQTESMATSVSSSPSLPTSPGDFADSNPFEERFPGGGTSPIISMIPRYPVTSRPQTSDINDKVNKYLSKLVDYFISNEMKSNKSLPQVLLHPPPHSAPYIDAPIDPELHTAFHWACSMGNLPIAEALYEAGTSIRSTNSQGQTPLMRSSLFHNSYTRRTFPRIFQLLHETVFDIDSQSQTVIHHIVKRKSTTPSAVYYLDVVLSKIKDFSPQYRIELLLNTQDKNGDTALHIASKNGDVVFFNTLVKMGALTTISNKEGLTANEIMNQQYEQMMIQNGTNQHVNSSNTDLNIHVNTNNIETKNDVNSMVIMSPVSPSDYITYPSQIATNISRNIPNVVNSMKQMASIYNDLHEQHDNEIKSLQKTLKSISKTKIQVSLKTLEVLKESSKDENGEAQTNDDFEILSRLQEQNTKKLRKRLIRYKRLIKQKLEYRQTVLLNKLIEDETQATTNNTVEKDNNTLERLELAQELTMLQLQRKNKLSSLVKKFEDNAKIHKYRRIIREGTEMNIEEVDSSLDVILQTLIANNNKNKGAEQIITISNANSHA

Swi6 (S. cerevisiae) = target: T2, Swi6 (S. cerevisiae) (UniProt P09959); assay: as above
T2 sequence: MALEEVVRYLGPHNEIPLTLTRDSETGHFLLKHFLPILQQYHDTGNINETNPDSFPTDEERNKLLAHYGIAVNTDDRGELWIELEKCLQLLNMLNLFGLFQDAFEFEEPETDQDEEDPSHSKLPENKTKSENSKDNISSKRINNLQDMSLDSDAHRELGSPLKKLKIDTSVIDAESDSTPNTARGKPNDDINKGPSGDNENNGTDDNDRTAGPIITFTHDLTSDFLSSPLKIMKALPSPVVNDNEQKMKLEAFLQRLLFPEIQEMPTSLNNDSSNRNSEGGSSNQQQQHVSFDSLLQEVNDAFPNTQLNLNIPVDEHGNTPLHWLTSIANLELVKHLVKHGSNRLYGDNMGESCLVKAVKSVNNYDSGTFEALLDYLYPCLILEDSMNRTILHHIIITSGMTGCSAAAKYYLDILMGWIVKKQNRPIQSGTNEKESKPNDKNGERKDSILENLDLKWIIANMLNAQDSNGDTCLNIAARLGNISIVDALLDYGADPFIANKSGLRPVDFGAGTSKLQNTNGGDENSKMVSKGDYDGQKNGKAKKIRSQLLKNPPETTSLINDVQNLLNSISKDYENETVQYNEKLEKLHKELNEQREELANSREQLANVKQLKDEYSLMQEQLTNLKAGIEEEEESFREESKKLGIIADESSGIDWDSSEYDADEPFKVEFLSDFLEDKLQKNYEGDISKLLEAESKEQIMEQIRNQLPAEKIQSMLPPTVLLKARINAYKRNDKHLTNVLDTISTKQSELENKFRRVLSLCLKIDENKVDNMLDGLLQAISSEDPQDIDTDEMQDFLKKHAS

Swi4 (S. cerevisiae) = target: T3, Swi4 (S. cerevisiae) (UniProt P25302); assay: as above
T3 sequence: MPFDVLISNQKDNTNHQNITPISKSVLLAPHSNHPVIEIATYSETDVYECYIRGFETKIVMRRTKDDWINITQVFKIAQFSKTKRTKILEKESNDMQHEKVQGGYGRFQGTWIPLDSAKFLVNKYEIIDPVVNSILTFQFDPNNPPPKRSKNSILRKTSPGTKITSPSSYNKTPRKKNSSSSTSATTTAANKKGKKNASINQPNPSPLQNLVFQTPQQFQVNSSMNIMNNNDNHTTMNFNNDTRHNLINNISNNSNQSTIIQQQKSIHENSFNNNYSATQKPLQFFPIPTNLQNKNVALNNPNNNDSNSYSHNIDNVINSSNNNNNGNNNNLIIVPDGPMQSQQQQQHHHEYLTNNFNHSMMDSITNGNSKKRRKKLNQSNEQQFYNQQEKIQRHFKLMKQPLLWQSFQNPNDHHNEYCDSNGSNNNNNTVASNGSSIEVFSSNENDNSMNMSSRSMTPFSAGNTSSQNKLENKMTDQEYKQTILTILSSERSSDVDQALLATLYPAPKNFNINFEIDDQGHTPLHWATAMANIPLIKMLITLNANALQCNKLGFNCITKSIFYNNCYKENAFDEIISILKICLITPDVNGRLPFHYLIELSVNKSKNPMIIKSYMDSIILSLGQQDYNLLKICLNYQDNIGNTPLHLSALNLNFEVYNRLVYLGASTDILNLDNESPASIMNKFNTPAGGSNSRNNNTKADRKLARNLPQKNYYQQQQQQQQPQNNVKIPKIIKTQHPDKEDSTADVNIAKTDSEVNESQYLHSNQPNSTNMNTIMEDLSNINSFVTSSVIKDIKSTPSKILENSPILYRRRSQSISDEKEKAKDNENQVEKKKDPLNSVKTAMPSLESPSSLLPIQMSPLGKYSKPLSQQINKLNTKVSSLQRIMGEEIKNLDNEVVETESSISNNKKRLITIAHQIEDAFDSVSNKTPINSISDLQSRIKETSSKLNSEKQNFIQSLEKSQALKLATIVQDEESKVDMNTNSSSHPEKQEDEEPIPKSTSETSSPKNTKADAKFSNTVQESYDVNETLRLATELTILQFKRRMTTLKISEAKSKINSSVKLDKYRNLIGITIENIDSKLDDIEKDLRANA

[1] = target: T4, myc-tagged Whi5 (S. cerevisiae) (UniProt Q12416); assay: co-IP; lysate of an asynchronous Whi5-myc culture; IP with anti-myc antibody; blots with anti-myc, anti-Swi6, anti-Swi4, anti-Mbp1
T4 sequence: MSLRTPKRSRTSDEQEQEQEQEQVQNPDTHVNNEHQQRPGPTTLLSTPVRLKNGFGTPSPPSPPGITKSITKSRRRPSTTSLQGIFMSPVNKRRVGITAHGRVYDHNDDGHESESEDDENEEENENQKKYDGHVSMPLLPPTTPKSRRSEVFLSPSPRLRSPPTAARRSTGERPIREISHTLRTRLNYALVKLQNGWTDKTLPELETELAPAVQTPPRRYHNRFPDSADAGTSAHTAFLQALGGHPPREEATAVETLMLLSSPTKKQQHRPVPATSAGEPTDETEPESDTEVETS

B1: myc-tagged Nrm1 (protein, UniProt P53718 1-249)
chain: MSIMKQRLPLGEFSSSKINKLAIANIADASEPRNHGENNVGTVCLPSIKSLMVSPEVYENTKSLPVPLMRSSGGGMACASKSSCQDGISTKTTSRDYSELSKKLQIRLQFAYYKYKTKQTDKNFTDLKSKHSITRPSKVATHSKSEPLTRRRKLVLSQGHYKTPARSKIKTPSSICSHDNTSSFTSFRGVSESSSTTADMNVADTTTPIRNNINTKHSNSHNRTLYQRQETPTSIKAAKSLIHLFTSNQ
In the case of B1, the binding (Mbp1 (S. cerevisiae)) is reported as “binds”, the binding (Swi6 (S. cerevisiae)) is reported as “binds” and the binding (Swi4 (S. cerevisiae)) is reported as “no binding”.

B2: Mbp1 (protein, UniProt P39678 1-833)
chain: MSNQIYSARYSGVDVYEFIHSTGSIMKRKKDDWVNATHILKAANFAKAKRTRILEKEVLKETHEKVQGGFGKYQGTWVPLNIAKQLAEKFSVYDQLKPLFDFTQTDGSASPPPAPKHHHASKVDRKKAIRSASTSAIMETKRNNKKAEENQFQSSKILGNPTAAPRKRGRPVGSTRGSRRKLGVNLQRSQSDMGFPRPAIPNSSISTTQLPSIRSTMGPQSPTLGILEEERHDSRQQQPQQNNSAQFKEIDLEDGLSSDVEPSQQLQQVFNQNTGFVPQQQSSLIQTQQTESMATSVSSSPSLPTSPGDFADSNPFEERFPGGGTSPIISMIPRYPVTSRPQTSDINDKVNKYLSKLVDYFISNEMKSNKSLPQVLLHPPPHSAPYIDAPIDPELHTAFHWACSMGNLPIAEALYEAGTSIRSTNSQGQTPLMRSSLFHNSYTRRTFPRIFQLLHETVFDIDSQSQTVIHHIVKRKSTTPSAVYYLDVVLSKIKDFSPQYRIELLLNTQDKNGDTALHIASKNGDVVFFNTLVKMGALTTISNKEGLTANEIMNQQYEQMMIQNGTNQHVNSSNTDLNIHVNTNNIETKNDVNSMVIMSPVSPSDYITYPSQIATNISRNIPNVVNSMKQMASIYNDLHEQHDNEIKSLQKTLKSISKTKIQVSLKTLEVLKESSKDENGEAQTNDDFEILSRLQEQNTKKLRKRLIRYKRLIKQKLEYRQTVLLNKLIEDETQATTNNTVEKDNNTLERLELAQELTMLQLQRKNKLSSLVKKFEDNAKIHKYRRIIREGTEMNIEEVDSSLDVILQTLIANNNKNKGAEQIITISNANSHA
In the case of B2, the binding [1] is reported as “no binding” and the binding (Swi6 (S. cerevisiae)) is reported as “binds”.

B3: Swi4 (protein, UniProt P25302 1-1093)
chain: MPFDVLISNQKDNTNHQNITPISKSVLLAPHSNHPVIEIATYSETDVYECYIRGFETKIVMRRTKDDWINITQVFKIAQFSKTKRTKILEKESNDMQHEKVQGGYGRFQGTWIPLDSAKFLVNKYEIIDPVVNSILTFQFDPNNPPPKRSKNSILRKTSPGTKITSPSSYNKTPRKKNSSSSTSATTTAANKKGKKNASINQPNPSPLQNLVFQTPQQFQVNSSMNIMNNNDNHTTMNFNNDTRHNLINNISNNSNQSTIIQQQKSIHENSFNNNYSATQKPLQFFPIPTNLQNKNVALNNPNNNDSNSYSHNIDNVINSSNNNNNGNNNNLIIVPDGPMQSQQQQQHHHEYLTNNFNHSMMDSITNGNSKKRRKKLNQSNEQQFYNQQEKIQRHFKLMKQPLLWQSFQNPNDHHNEYCDSNGSNNNNNTVASNGSSIEVFSSNENDNSMNMSSRSMTPFSAGNTSSQNKLENKMTDQEYKQTILTILSSERSSDVDQALLATLYPAPKNFNINFEIDDQGHTPLHWATAMANIPLIKMLITLNANALQCNKLGFNCITKSIFYNNCYKENAFDEIISILKICLITPDVNGRLPFHYLIELSVNKSKNPMIIKSYMDSIILSLGQQDYNLLKICLNYQDNIGNTPLHLSALNLNFEVYNRLVYLGASTDILNLDNESPASIMNKFNTPAGGSNSRNNNTKADRKLARNLPQKNYYQQQQQQQQPQNNVKIPKIIKTQHPDKEDSTADVNIAKTDSEVNESQYLHSNQPNSTNMNTIMEDLSNINSFVTSSVIKDIKSTPSKILENSPILYRRRSQSISDEKEKAKDNENQVEKKKDPLNSVKTAMPSLESPSSLLPIQMSPLGKYSKPLSQQINKLNTKVSSLQRIMGEEIKNLDNEVVETESSISNNKKRLITIAHQIEDAFDSVSNKTPINSISDLQSRIKETSSKLNSEKQNFIQSLEKSQALKLATIVQDEESKVDMNTNSSSHPEKQEDEEPIPKSTSETSSPKNTKADAKFSNTVQESYDVNETLRLATELTILQFKRRMTTLKISEAKSKINSSVKLDKYRNLIGITIENIDSKLDDIEKDLRANA
B3 was tested, and the binding [1] was “binds” and the binding (Swi6 (S. cerevisiae)) was “binds”.
